# PubChem BioAssay AID485344 (National Center for Advancing Translational Sciences (NCATS), 2010)
# Hit rate of the full screen: of about 340,000 compounds, about 6,900 (2%) were called active. No stated cut-off is given here; in the data, active means inhibition above about 30%; inactive means below that, where a call was filed. The entries are a selection whose mix differs from that of the whole data set. Where no call is shown, the source filed none.
# Biological target: D(2) dopamine receptor (Homo sapiens) (UniProt P14416)
# Experiment: HTS Assay for Allosteric Antagonists of the Human D2 Dopamine Receptor: Primary Screen for Antagonists; further: 0% is about no effect
# Conditions: HEK293 TREx D2 cells, calcium flux, dopamine EC80; at 10 µM; stronger effect = higher value
# Outline: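 HEK293 T-REx D2 cells, tet-induced, calcium dye no-wash. Cpd pintool add, 180 s kinetic, then EC80 DA, 180 s kinetic. Ca flux read.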
# Chain of UniProt P14416 (P14416 whole entry, looked up): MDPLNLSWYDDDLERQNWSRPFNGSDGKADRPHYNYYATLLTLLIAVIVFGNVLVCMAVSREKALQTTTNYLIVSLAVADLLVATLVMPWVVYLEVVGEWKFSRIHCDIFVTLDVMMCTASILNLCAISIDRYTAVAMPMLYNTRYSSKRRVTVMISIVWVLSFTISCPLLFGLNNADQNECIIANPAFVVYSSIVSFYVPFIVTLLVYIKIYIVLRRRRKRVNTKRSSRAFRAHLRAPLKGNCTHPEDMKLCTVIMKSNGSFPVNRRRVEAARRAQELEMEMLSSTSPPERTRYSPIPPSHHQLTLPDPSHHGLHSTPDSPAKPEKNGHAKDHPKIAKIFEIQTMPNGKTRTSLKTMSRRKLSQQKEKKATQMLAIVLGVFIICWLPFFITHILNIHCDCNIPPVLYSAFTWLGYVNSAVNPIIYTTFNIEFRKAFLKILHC
row,Compound,inhibition
1,COC(=O)c1ccc(CNC(=O)c2ccc3c(c2)NC(=O)CS3)cc1,active: 37.2%
2,COC(=O)c1ccc(Cn2c(SCc3cccc(C)c3)nc3ccncc32)cc1,5.78%
3,Cc1cc(C)c(/C=C/c2onc(C)c2S(=O)(=O)N2CCC(C(=O)N3CCN(c4ccccc4)CC3)CC2)c(C)c1,-4.57%
4,CCOC(=O)c1sc2ncn(CC(=O)Nc3ccc(C)cc3C)c(=O)c2c1C,-10.6%
5,COc1cccc(NC(=O)c2cn(C3CCCCC3)c(=O)c3c2c2ccccc2n3C)c1,15.9%
6,Cc1ccc(-c2ccc(=O)n(C(C)C(=O)Nc3ccccc3Cl)n2)cc1C (centres undefined),3.09%
7,CC1CCc2nc3ncn(CC(=O)Nc4cccc(C#N)c4)c(=O)c3cc2C1 (centres undefined),3.48%
8,COc1ccc(S(=O)(=O)N(CC(=O)N2CCC(C)CC2)c2ccc(C)cc2)cc1,-2.16%
9,Cc1cc(C)c2[nH]c(=O)c(C(c3nnnn3CC3CCCO3)N3CCC(C)CC3)cc2c1 (centres undefined),active: 37.3%
10,COc1ccccc1-c1nn(CCC(=O)Nc2cccc(C(C)=O)c2)c2nc(C)cc(C)c12,4.18%
11,COc1ccc(CCNC(=O)NCc2noc3ccc(C)cc23)c(OC)c1,18%
12,CCN(CC)c1cc2c(cc1F)c(=O)c(S(=O)(=O)c1ccccc1)cn2Cc1ccccc1,1.52%
13,Cc1ccc(C(=O)NC2CCCC2)cc1S(=O)(=O)N1CCCCC1,active: 31.8%
14,COCCn1c(Cc2ccccc2)nnc1SCC(=O)NC1CC1,active: 32.2%
15,CC(=O)c1cccc(NS(=O)(=O)c2c(C)nc3sc(C)cn3c2=O)c1,-7.11%
16,CCOC(=O)c1cccc(NC(=O)CCCn2c(C)c3cnn(-c4ccccc4)c(=O)c3c2C)c1,-6.63%
17,COc1cc(C2CC(=O)Nc3c2c(=O)n(C)c(=O)n3C)cc(OC)c1OC (centres undefined),-2.09%
18,Cc1cccc(-n2ncc(C(=O)N3CCC(C)CC3)c2C2CCN(C(=O)OC(C)(C)C)CC2)c1,-8.61%
19,Cc1ccc(CNC(=O)CCC(=O)N2CC(C)Sc3ccccc32)cc1 (centres undefined),12.8%
20,Cc1ccc(NC(=O)c2cc3c(=O)[nH]c4ccccc4c3n2C)cc1F,5.75%
21,COc1ccc(-c2cc(C(C)=O)c(C)n2CCC(=O)NCc2ccc(F)cc2)cc1,-4.17%
22,Cc1ccc(OCCn2nnc3sc4c(c3c2=O)CCC(C(C)(C)C)C4)cc1 (centres undefined),4.31%
23,CC(C)c1ccc(NC(=O)c2cccn2-c2nnc(N3CCCCC3)s2)cc1,4.98%
24,CCCOc1cccc(C(=O)N(Cc2cc(OC)c(OC)c(OC)c2)C2CCS(=O)(=O)C2)c1 (centres undefined),-0.835%

row,Compound,inhibition
1,COc1cccc(Cn2c(=O)n(-c3ccc(Br)cc3F)c(=O)c3sc4ccccc4c32)c1,15.3%
2,CCCCNC(=O)CSc1nc2ccccc2nc1Cc1ccc(Cl)cc1,6.63%
3,CCOc1cccc2cc(-c3nc4sc5c(c4c(=O)[nH]3)CCC(C)C5)c(=O)oc12 (centres undefined),19.3%
4,Cc1ccc(NC(=O)CC2Nc3cccc4cccc(c34)NC2=O)cc1 (centres undefined),12.1%
5,COc1ccc(N(Cc2ccccc2)C(=O)c2nc(SC)ncc2Cl)cc1,17.2%
6,COc1ccc(NC(=O)CCNS(=O)(=O)c2cccc3nsnc23)cc1OC,13.5%
7,COc1ccc(Cl)cc1NC(=O)CCCn1c(C)c2cnn(-c3ccccc3)c(=O)c2c1C,-3.7%
8,COc1ccc(C2=Nc3ccc(C)cc3NC(c3ccc(Cl)cc3)=N2)cc1,9.61%
9,Cc1ccc(Cl)cc1N1C(=O)N(Cc2ccc(C#N)cc2)c2ccccc2S1(=O)=O,-15%
10,COc1ccc(CNC(=O)c2cccc(NC(=O)N3CCSc4ncccc43)c2)cc1,10.1%
11,Cc1cccc(NC(=S)N(CCCN2CCOCC2)C(C)c2cc3ccccc3o2)c1 (centres undefined),active: 35.4%
12,COc1ccc(-c2noc(N3CCC(C(=O)Nc4ccc(C)c(F)c4)CC3)n2)cc1OC,5.8%
13,Cc1ccccc1NC(=O)c1c(O)c2cccc3c2n(c1=O)CCC3,active: 46.5%
14,O=C(c1ccc2c(c1)N(Cc1ccc(F)cc1)C(=O)c1ccccc1S2(=O)=O)N1CCC(Cc2ccccc2)CC1,16.5%
15,COc1ccc(-n2ccn(Cc3ccc(C)cc3)c(=O)c2=O)cc1OC,4.84%
16,O=C(CSc1ccc2ccccc2n1)Nc1nsc(-c2ccc(Cl)cc2)n1,2.02%
17,CCN1CCN(c2nc(N(C)c3ccccc3)nc(N)c2[N+](=O)[O-])CC1,active: 49.5%
18,O=C(CN1CCN(c2ccc(O)cc2)CC1)N1CCc2ccccc21,active: 39.6%
19,COc1ccc(NC(=O)CN(C)S(=O)(=O)c2ccc3[nH]c4c(c3c2)CCCC4)cc1Cl,-1.41%
20,CC(=O)N1c2nc(-c3ccco3)nn2C2(CCCCC2)[C@@H]2CCCC[C@@H]21,19.1%
21,COc1ccc(Cn2c(SCc3ccc(C(=O)NCc4ccccc4F)cc3)nc3cccnc32)cc1,2.91%
22,Cc1cccc(-n2c(=O)c3c(c4cc(C)ccc4n3C)n(Cc3ccccc3F)c2=O)c1,6.47%
23,CC1=C(C(=O)OCC2CCCCC2)C(c2c(F)cccc2Cl)CC(=O)N1 (centres undefined),10.7%
24,COc1cc(OC)c(NC(=O)Nc2ccccc2OCc2cc(=O)n3cc(C)ccc3n2)cc1Cl,19.6%

row,Compound,inhibition
1,CCc1ccc(S(=O)(=O)c2nnn3c2nc(NC2CCCC2)c2sccc23)cc1,2.39%
2,COc1ccc(C)cc1NC(=O)CCS(=O)(=O)c1ccc2c(c1)CC(=O)N2C,18%
3,COc1ccc(CCNC(=O)CCc2c(C)nc3nc(C)nn3c2C)cc1OC,-9.92%
4,CCOC(=O)c1sc(NC(=O)COc2ccccc2Cl)c(C(=O)OCC)c1C,0.875%
5,O=C(Nc1ccc(O)c(-c2nc3ccccc3o2)c1)c1ccco1,6.98%
6,Cc1ccccc1NC(=O)CSc1nc2c(oc3ccccc32)c(=O)n1-c1ccccc1F,-2.2%
7,COc1ccc(C(=O)/C=C/Nc2ccc([N+](=O)[O-])cc2C)cc1OC,active: 40%
8,CC1CCc2sc(C(=O)NC3CCN(Cc4ccccc4)CC3)cc2C1 (centres undefined),active: 83.4%
9,CC1CCN(C(=O)c2cc(-c3ccc(Cl)cc3)on2)CC1,11.5%
10,COc1ccccc1OCc1ccc(C(=O)N2CCN(C(=O)c3ccco3)CC2)cc1,active: 35.4%
11,COc1cc(C(=O)Nc2ccc(OCc3cc(=O)n4cc(C)sc4n3)cc2)cc(OC)c1OC,12.9%
12,O=C(NCCc1ccccc1)c1c[nH]c2ccc(S(=O)(=O)Nc3ccccc3F)cc2c1=O,0.282%
13,COc1ccc(NC(=O)Nc2nnc(N(C)C3CCCCC3)s2)c(OC)c1,18.5%
14,O=C(CSc1nc2c(c(=O)[nH]1)CN(Cc1ccc3c(c1)OCO3)CC2)Nc1ccc(F)cc1,1.35%
15,CCCOc1cccc(C(=O)Nc2ccc(-c3nc4ccccc4o3)cc2)c1,-8.68%
16,COc1cc(OC)cc(-n2c(=O)c3ccccc3n(CC(=O)NCCc3ccc(OC)c(OC)c3)c2=O)c1,-13%
17,COc1ccc2cc(CNc3ccc(OC)c(OC)c3)c(=O)n(CC(=O)Nc3ccc(C)cc3)c2c1,-11.8%
18,N#Cc1ccc(CSc2ccc(S(=O)(=O)N3CCCC3)cn2)cc1,active: 30%
19,CCCNC(=O)CN1C(=O)c2cccnc2Sc2ccccc21,-5.25%
20,Cc1cccc(NC(=O)CSc2nc(C)c(Cc3ccccc3)c(=O)[nH]2)c1,28.4%
21,COc1ccc(-c2nc(CNS(=O)(=O)c3ccc(F)cc3)cs2)cc1,4.06%
22,Cc1ccc(C)c(N2CCN(C(=O)c3c4c(nc5ccccc35)C(=O)N(C3CCCCC3)C4)CC2)c1,-10.9%
23,COc1ccccc1N1CCN(C(=O)c2c3c(nc4ccccc24)C(=O)N(C2CCCCC2)C3)CC1,-8.1%
24,O=C(Cn1cc(S(=O)(=O)Cc2ccc(F)cc2)c2ccccc21)NCc1ccccc1,4.56%

row,Compound,inhibition
1,COc1ccccc1CCNC(=O)c1cccn1-c1nnc(N2CCCCC2)s1,4.33%
2,CCOc1ccccc1NC(=O)CSc1cc(=O)n(CC)c2ccccc12,-4.57%
3,CCOc1ccc(-c2cc(C(F)(F)F)c(C#N)c(SCC(=O)Nc3ccccc3)n2)cc1,-2.23%
4,CC(=O)c1cc(-c2ccccc2)n(CCC(=O)Nc2cc(C)cc(C)c2)c1C,-7.22%
5,CCc1ccc(NC(=O)c2ccc(CN3C(=O)C(C)=C(c4ccc(C)cc4)S3(=O)=O)cc2)cc1,15.5%
6,COc1ccc(-c2onc(C)c2C)cc1S(=O)(=O)N1CCC(C)CC1,3.83%
7,Cn1c(C(=O)NCc2cccc(F)c2)cc2cc(S(=O)(=O)N3CCCCC3)ccc21,8.55%
8,COc1cccc(-c2nc(C(N)=O)c3c(n2)n(-c2ccc4c(c2)OCO4)c(=O)n3C)c1OC,-27.6%
9,CSc1nc2c([nH]c3ccccc32)c(=O)n1-c1ccc(F)cc1,1.06%
10,Cc1ccc(-n2ncc3c(NCCC4=CCCCC4)ncnc32)cc1C,26.6%
11,O=C(CNS(=O)(=O)c1ccc(Br)s1)N1CCN(c2ccccc2F)CC1,5.13%
12,Cc1nn(CC(=O)N2CCN(c3ccccc3)CC2)c(=O)c2cccn12,3.1%
13,CCc1nn(CC(=O)NCc2cccc(OC)c2)c(=O)c2cc3cc(F)ccc3n12,0.321%
14,COc1cccc(OC)c1C(=O)Nc1ccc2c(c1)CCCN2S(=O)(=O)c1ccc(C)cc1,-2.71%
15,Cc1ccc(-c2nc3c(cnn3-c3ccccc3)c(=O)n2-c2ccc(Cl)cc2)cc1,-9.9%
16,Cc1ccc(CSc2nc3ccc(NC(=O)COc4ccccc4F)cc3s2)cc1,-3.83%
17,O=C(CCCCn1c(=O)[nH]c2ccsc2c1=O)N1CCN(c2cccc(Cl)c2)CC1,-15.1%
18,CCN(CC)CCCNC(=O)Cn1c(-c2cccs2)cc2cc(Cl)ccc21,7.51%
19,CCCCN(CCCC)S(=O)(=O)c1ccc2oc(C(=O)NCc3ccccc3)c(C)c2c1,11.5%
20,CCOC(=O)c1c(C)oc2c(Cl)cc(NS(=O)(=O)c3ccc(Cl)c(C)c3)cc12,-25.1%
21,Cc1cc(C)c(/C=C/c2onc(C)c2S(=O)(=O)N2CCC(C(=O)NCc3ccco3)CC2)c(C)c1,6.31%
22,O=C(CN1C(=O)C2(SCC(=O)N2c2cccc(Cl)c2)c2ccccc21)NC1CCCCC1 (centres undefined),6.87%
